Test results: patent publication US20250296979A1 (VEGENICS, published 2025)

Tests used:
VEGF-D ligand [1] = biological target: T1, VEGF-D ligand (UniProt O43915 89-205, limits assumed); assay: ELISA, VEGF-D coated; against OPT-302 reference standard; stored at -20 C, 1 month
T1 sequence (looked up): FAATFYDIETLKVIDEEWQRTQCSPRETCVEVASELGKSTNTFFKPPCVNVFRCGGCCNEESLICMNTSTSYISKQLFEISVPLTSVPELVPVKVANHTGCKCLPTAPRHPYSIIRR
Procedure: (§1) The assay plate was coated overnight with VEGF-C ligand at 0.1 μg/mL or VEGF-D ligand at 1.0 μg/mL. OPT-302 reference standard and test samples were diluted to a starting concentration of 1500 ng/ml and serial 2-fold dilutions are performed covering from 1.5 ng/mL to 1500 ng/mL. The plate was incubated for 60 min at 25° C. and then washed to remove unbound sample. The bound molecules were detected by adding HRP conjugated rabbit anti-human IgG to the assay plate and incubated for 60 min at 25° C. This was followed by the addition of TMB substrate and the assay plates were incubated in the dark for 10 minutes at room temperature. Colour development was stopped by adding 1M HCl stop solution, which was detected by absorbance at 450 nm. The intensity of the yellow colour was proportional to the amount of bound OPT-302 molecules, which in turn reflected the activity of the OPT-302 reference standard or test samples. 4-parameter curves were then generated by plotting the mean values against log10 of the serial 2-fold dilution concentrations. The reportable value was relative potency (%) of the test sample, i.e. the ratio of the EC50 of the reference standard to the EC50 of the test sample.

VEGF-C ligand [2] = biological target: T2, VEGF-C ligand (UniProt P49767 112-227, limits assumed); assay: ELISA, VEGF-C coated; against OPT-302 reference standard; stored at -20 C, 1 month
T2 sequence (looked up): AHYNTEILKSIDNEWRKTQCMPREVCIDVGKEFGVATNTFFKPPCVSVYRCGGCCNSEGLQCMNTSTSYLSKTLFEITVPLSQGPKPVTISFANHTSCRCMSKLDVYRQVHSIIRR
Procedure: as §1

VEGF-D ligand [3] = biological target: T1, VEGF-D ligand; assay: ELISA, VEGF-D coated; against OPT-302 reference standard; stored at -20 C, 0.5 months
Procedure: as §1

VEGF-C ligand [4] = biological target: T2, VEGF-C ligand; assay: ELISA, VEGF-C coated; against OPT-302 reference standard; stored at -20 C, 0.5 months
Procedure: as §1

VEGF-D ligand [5] = biological target: T1, VEGF-D ligand; assay: ELISA, VEGF-D coated; against OPT-302 reference standard; stored at -20 C, 2 months
Procedure: as §1

VEGF-C ligand [6] = biological target: T2, VEGF-C ligand; assay: ELISA, VEGF-C coated; against OPT-302 reference standard; stored at -20 C, 2 months
Procedure: as §1

VEGF-D ligand [7] = biological target: T1, VEGF-D ligand; assay: ELISA, VEGF-D coated; against OPT-302 reference standard; stored at -20 C, 0 months
Procedure: as §1

relative potency (EC50 of reference standard / EC50 of test sample) (VEGF-D ligand [1]): 100%
relative potency (EC50 of reference standard / EC50 of test sample) (VEGF-C ligand [2]): 118%
relative potency (EC50 of reference standard / EC50 of test sample) (VEGF-D ligand [3]): 116%
relative potency (EC50 of reference standard / EC50 of test sample) (VEGF-C ligand [4]): 126%
relative potency (EC50 of reference standard / EC50 of test sample) (VEGF-D ligand [5]): 106%
relative potency (EC50 of reference standard / EC50 of test sample) (VEGF-C ligand [6]): 108%
relative potency (EC50 of reference standard / EC50 of test sample) (VEGF-D ligand [7]): 102%
B1: OPT-302 (Fc fusion)
chain: YSMTPPTLNITEESHVIDTGDSLSISCRGQHPLEWAWPGAQEAPATGDKDSEDTGVVRDCEGTDARPYCKVLLLHEVHAQDTGSYVCYYKYIKARIEGTTAASSYVFVRDFEQPFINKPDTLLVNRKDAMWVPCLVSIPGLNVTLRSQSSVLWPDGQEVVWDDRRGMLVSTPLLHDALYLQCETTWGDQDFLSNPFLVHITGNELYDIQLLPRKSLELLVGEKLVLNCTVWAEFNSGVTFDWDYPGKQAERGKWVPERRSQQTHTELSSILTIHNVSQHDLGSYVCKANNGIQRFRESTEVIVHE[letters of human IgG1 Fc not shown]
modifications: N-glycosylation at 9-11, 142-144, 227-229, 275-277 and 387-389 (features of SEQ ID NO: 3 in the printed sequence listing)
notes: Tested as formulated drug product after storage; also called soluble VEGFR-3 trap molecule; Formulation 1 (41.5 mg/mL OPT-302 formulation)
